The values that follow come from PubChem BioAssay (NCI).

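Assay format: 96-well plates, 48-hour exposure. Abbreviation: GI50, concentration required for 50% inhibition of growth. Definition used: TGI = concentration required for complete inhibition of growth.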

The test has as its system NCI-H322M lung. Nature of the test: DTP human tumour cell line panel, 48 h.
For orientation: GI50 means the concentration that inhibits growth by half. One may read the TGI as the concentration giving total growth inhibition. The low end stands for greater sensitivity of the cells, the high end for lower sensitivity of the cells. As to `Cc1ccc(/C=C(\C#N)n2nnc3c(F)cccc32)cc1`, the GI50 was 1.28 µM and the TGI worked out at 11.1 µM.
For the compound `COc1ccc([C@H]2C(C(=O)c3ccc(Cl)cc3)C3(N[C@@H]2c2ccccc2)C(=O)Nc2ccc(Cl)cc23)cc1` (stereo partly drawn), the GI50 is 7.33 µM and the TGI was found to be 30.4 µM.
As for `O=C(NN1C(=O)/C(=C/C=C/c2ccc([N+](=O)[O-])o2)SC1=S)c1ccc([N+](=O)[O-])cc1`, the GI50 was 1.79 µM and the concentration for total growth inhibition (TGI) came to 3.81 µM.
`CN(C)CCCNC(=O)c1cc(NC(=O)c2cc(NC(=O)c3ccc(/C=C/c4ccccc4)cc3)cn2C)cn1C`: the GI50 was 23.2 µM and the TGI was greater than 31.3 µM.
